Reference: PubChem BioAssay (NCATS)
The inconclusive results got no clear call from the source; some entries with a clear call stand among them for comparison. No potency is given beside an inconclusive call; the fits are too rough. Calls of active or inactive are those of the source. Calls follow the shape of the dose curve; as a rule, active = well fitted curve in the direction sought with a large enough effect; inconclusive = small, poorly fitted or top-dose-only effect, or another doubt; inactive = no such curve, though single readings can be large; an effect the other way counts as inactive or inconclusive.

molecular target: DNA polymerase eta (Homo sapiens) (UniProt Q9Y253); assay: qHTS for Inhibitors of Polymerase Eta: Confirmatory Assay for Cherry-picked Compounds (AID 720502); details: Pol eta primer extension, TAMRA/BHQ fluorescence, 10 min
UniProt Q9Y253, sequence (Q9Y253 whole entry, looked up): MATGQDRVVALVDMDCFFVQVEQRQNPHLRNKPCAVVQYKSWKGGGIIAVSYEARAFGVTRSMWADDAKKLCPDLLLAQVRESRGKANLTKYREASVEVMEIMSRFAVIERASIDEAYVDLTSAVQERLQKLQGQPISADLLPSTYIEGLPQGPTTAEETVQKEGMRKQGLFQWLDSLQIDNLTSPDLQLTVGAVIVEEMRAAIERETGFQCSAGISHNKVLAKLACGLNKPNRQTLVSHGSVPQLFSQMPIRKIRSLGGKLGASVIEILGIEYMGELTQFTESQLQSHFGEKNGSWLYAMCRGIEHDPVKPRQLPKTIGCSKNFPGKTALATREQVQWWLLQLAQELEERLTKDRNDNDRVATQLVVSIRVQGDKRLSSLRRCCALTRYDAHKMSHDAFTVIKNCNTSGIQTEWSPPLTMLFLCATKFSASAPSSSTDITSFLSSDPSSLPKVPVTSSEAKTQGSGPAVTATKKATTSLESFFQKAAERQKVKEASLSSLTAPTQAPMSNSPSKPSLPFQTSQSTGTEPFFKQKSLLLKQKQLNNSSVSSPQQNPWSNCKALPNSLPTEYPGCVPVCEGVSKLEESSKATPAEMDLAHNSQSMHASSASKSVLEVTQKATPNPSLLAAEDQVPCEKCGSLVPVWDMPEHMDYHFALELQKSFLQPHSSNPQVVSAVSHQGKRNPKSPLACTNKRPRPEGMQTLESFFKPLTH
Outline: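 Plates with 10 nM enzyme and compound stood 15 min at room temperature before substrate addition (50 nM final). Displacement of the TAMRA reporter from the BHQ-2 template was tracked for 10 min.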
Potency is read from the fitted curve at half-maximal effect; tags tell the direction and shape of the fitted curve.

| SMILES | Potency |
| --- | --- |
| O=C1/C(=C\c2ccc(Br)cc2)SC(=S)N1NS(=O)(=O)c1ccccc1 | inconclusive [inhibitor, single point] |
| Nc1nnc(CC(=O)N/N=C/c2cc([N+](=O)[O-])cc(Br)c2O)s1 | inconclusive [inhibitor, single point] |
| O=C(O)CN1C(=O)/C(=C\c2cc(Br)ccc2OCc2ccc(Cl)cc2)SC1=S | active: 47.8 µM |
| CN(C)c1ccc2nc3c(=O)[nH]c(=O)nc-3n(CC(O)C(O)C(O)CO)c2c1 (configuration not stated) | active: 37.9 µM |

molecular target: Rap guanine nucleotide exchange factor 4 (Homo sapiens) (UniProt Q8WZA2); assay: Confirmatory qHTS for antagonist of cAMP-regulated guanine nucleotide exchange factor 4 (EPAC2) (AID 1645885); details: EPAC2 Rap1B-BODIPY-GDP exchange fluorescence, biochemical; series mostly up to 114 µM; also: nearly all actives have a fitted effect of over 25% in size
UniProt Q8WZA2, sequence (Q8WZA2 whole entry, looked up): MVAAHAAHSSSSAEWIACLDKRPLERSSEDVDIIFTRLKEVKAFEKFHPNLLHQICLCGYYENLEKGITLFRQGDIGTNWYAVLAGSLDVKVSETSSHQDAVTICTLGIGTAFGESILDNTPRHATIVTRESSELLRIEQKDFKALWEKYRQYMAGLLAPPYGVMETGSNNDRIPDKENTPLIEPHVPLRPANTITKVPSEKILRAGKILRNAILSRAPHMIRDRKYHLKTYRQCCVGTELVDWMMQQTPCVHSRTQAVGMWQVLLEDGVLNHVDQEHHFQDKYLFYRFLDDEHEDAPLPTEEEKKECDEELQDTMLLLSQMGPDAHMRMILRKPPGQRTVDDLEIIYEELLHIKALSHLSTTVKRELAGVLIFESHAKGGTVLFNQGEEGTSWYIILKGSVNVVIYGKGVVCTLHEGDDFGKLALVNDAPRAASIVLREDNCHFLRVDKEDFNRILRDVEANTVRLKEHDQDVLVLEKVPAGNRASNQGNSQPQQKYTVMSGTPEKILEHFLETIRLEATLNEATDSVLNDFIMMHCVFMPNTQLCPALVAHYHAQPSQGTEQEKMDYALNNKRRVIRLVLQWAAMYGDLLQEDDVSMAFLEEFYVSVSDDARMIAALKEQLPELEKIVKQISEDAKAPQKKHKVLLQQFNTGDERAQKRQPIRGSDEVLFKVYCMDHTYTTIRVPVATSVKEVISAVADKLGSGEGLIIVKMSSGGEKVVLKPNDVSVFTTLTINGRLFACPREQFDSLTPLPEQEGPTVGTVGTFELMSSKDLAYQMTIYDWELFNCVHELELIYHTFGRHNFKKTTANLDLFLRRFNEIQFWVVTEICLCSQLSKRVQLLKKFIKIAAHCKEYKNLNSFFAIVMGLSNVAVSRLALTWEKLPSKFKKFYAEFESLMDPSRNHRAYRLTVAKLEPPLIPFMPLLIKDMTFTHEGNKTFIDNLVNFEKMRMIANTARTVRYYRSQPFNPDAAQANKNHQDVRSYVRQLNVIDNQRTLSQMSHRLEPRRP

| SMILES | Potency |
| --- | --- |
| Cc1cccc(CNc2nc(-c3ccc4c(c3)OCO4)nc3ccccc23)c1 | inconclusive [inhibitor, full curve, poor fit] |
| CCN1C(=O)N(S(=O)(=O)C(F)(F)F)[C@@H](c2ccccc2)C(C(=O)OC)=C1C | inactive |
| COC(=O)c1c(OC)cc2c(c1C)Oc1c(Cl)c(OC(C)=O)c(Cl)c(C)c1C(=O)O2 | active: 11.1 µM |
| O=c1[nH]c([N+](=O)[O-])nn1C(c1ccccc1)c1ccccc1 | active: 26.9 µM |
| COC(=O)C1=CN(Cc2cccs2)C=C(C(=O)OC)C1c1cccc(O)c1 | inconclusive [inhibitor, full curve] |
| CC[C@H](C)C(=O)O[C@H]1CCC=C2C=C[C@H](C)[C@H](CC[C@@H]3C[C@H](O)CC(=O)O3)[C@H]21 | inconclusive [inhibitor, single point] |
| COc1cc(C)c2c(=O)cc(-c3ccccc3)oc2c1 | inconclusive [inhibitor, partial curve] |
| C=CCc1ccc(OC(=O)c2ccccc2)c(OC)c1 | inconclusive [inhibitor, full curve] |
| OC[C@@H]1[C@@H](c2ccc(F)cc2)C(c2cccc(Cl)c2)=NN1c1ccccc1 | inconclusive [inhibitor, full curve, poor fit] |
| O=C1/C(=C\c2ccc(Br)cc2)SC(=S)N1NS(=O)(=O)c1ccccc1 | inconclusive [inhibitor, single point] |
| O=C(O)CSc1cc(NS(=O)(=O)c2ccc(Cl)cc2)c2ccccc2c1O | inconclusive [inhibitor, partial curve] |
| O=C(/C=C/c1ccccc1)c1cc(Br)ccc(=O)c1O | inactive |
| Nc1nnc(CC(=O)N/N=C/c2cc([N+](=O)[O-])cc(Br)c2O)s1 | inconclusive [inhibitor, full curve, poor fit] |
| Nn1cnnc1N/N=C/c1ccc(Cl)c([N+](=O)[O-])c1 | inactive |
| O=C(O)CN1C(=O)/C(=C\c2cc(Br)ccc2OCc2ccc(Cl)cc2)SC1=S | active: 47.8 µM |
| Cc1nc(N(C)C)c2sc(=S)n(Cc3ccccc3)c2n1 | inconclusive [inhibitor, partial curve] |
| CCCCN(C(=O)c1ccc2c(c1)OCO2)c1ccccc1 | inconclusive [inhibitor, full curve] |
| CN(C)c1ccc2nc3c(=O)[nH]c(=O)nc-3n(CC(O)C(O)C(O)CO)c2c1 (configuration not stated) | inconclusive [inhibitor, single point] |
| COc1cccc(Nc2ncc3nc(-c4cc(F)cc(F)c4)c(=O)n(C4CC4)c3n2)c1 | inactive |
| CC1(C)C(O)CC[C@]2(C)C1CC[C@@]1(C)C2C(=O)C=C2[C@@H]3C[C@@](C)(C(=O)O)CC[C@@]3(C)CCC21C (some centres not stated) | active: 4.94 µM |
| O=C1OC(c2ccc3ccccc3c2O)(c2ccc3ccccc3c2O)c2ccccc21 | inactive |
| O=C1NN(c2ccccc2)C(=O)/C1=C\c1ccc(-c2cc([N+](=O)[O-])ccc2O)o1 | active: 60.1 µM |
| FC(F)(F)c1ccccc1-c1nc(N2CCOCC2)c2ccccc2n1 | inconclusive [inhibitor, partial curve, poor fit] |
